{"source": "paper PMC6919601", "about": "“Identification of Plasmodium dipeptidyl aminopeptidase allosteric inhibitors by high throughput screening” (PLoS ONE, 2019)", "note": "Out of some 110,000 compounds screened, about 230 (0.21%) showed an effect of 50% or more. Some of the results follow.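 Also: 30 min substrate incubation versus DMSO and 10 µM JCP410 controls.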", "data": [{"molecular_target": "DPAP1 (Plasmodium falciparum, UniProt Q8IIJ9)", "sequence (Q8IIJ9 whole entry, looked up)": "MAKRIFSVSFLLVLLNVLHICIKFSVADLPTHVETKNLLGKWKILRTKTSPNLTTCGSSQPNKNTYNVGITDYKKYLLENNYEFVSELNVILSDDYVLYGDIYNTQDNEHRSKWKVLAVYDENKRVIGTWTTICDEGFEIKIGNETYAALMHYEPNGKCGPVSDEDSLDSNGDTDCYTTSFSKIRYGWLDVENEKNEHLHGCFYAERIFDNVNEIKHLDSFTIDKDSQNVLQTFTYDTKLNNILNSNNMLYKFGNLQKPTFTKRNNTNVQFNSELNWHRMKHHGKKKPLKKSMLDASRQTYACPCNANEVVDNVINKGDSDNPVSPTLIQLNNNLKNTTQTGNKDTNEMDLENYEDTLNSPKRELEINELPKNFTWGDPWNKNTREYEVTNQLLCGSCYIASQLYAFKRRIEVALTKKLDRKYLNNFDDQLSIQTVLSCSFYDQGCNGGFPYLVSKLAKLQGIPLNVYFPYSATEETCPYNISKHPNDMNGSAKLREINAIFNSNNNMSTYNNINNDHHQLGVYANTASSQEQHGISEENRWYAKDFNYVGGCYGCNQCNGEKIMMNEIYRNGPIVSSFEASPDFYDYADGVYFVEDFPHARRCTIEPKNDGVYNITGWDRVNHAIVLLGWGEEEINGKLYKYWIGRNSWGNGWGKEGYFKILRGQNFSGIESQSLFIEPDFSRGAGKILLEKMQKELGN", "assay": "primary screen, percent inhibition; read by cleavage of a fluorogenic dipeptide substrate; higher = more effect of the substance", "set-up": "species or system P. falciparum D10 trophozoite lysates; single well", "units": {"% Inhibition @ 10 uM": "%"}, "values": [{"smiles": "Cc1ccccc1C(=O)Nc1ccc(Cl)cn1", "% Inhibition @ 10 uM": -0.268}, {"smiles": "Cc1ccsc1/C=C/C(=O)NCC(=O)O", "% Inhibition @ 10 uM": -0.971}, {"smiles": "Cc1cc(N2C(=O)CC(Cc3ccc(Cl)cc3)C2=O)no1", "note": "(stereo not shown)", "% Inhibition @ 10 uM": -1.33}, {"smiles": "O=c1oc2ccccc2n1CCCOc1ccccc1", "% Inhibition @ 10 uM": -4.6}, {"smiles": "Cc1nc2ccccc2c2oc(C(=O)NC3CCCc4ccccc43)cc12", "note": "(stereo not shown)", "% Inhibition @ 10 uM": -5.25}, {"smiles": "C=CCNCC1OCc2ccccc2CO1", "% Inhibition @ 10 uM": -3.49}, {"smiles": "CCOP(=O)(OCC)C(Nc1cccc(C(F)(F)F)c1)c1ccc(C)cc1", "note": "(stereo not shown)", "% Inhibition @ 10 uM": -0.744}, {"smiles": "O=C(/C=C/c1ccccc1Cl)NC1CC2CCC1C2", "note": "(stereo not shown)", "% Inhibition @ 10 uM": 5.37}, {"smiles": "O=C(NCCc1ccsc1)c1cnn2ccccc12", "% Inhibition @ 10 uM": -8.42}, {"smiles": "O=C(COc1ccc(Cl)cc1)N(Cc1cccc(F)c1)C1CCS(=O)(=O)C1", "note": "(stereo not shown)", "% Inhibition @ 10 uM": -3.12}, {"smiles": "CCC(CC)C(=O)N1CCN(c2cccc(C)c2C)CC1", "% Inhibition @ 10 uM": -3.72}, {"smiles": "Cc1ccc(S(=O)(=O)N(CC(C)C)CC(C)C)cc1[N+](=O)[O-]", "% Inhibition @ 10 uM": -2.55}, {"smiles": "Cc1cc(C)c(S(=O)(=O)NCc2ccc3c(c2)OCO3)cc1Br", "% Inhibition @ 10 uM": -3.5}, {"smiles": "O=C(CCCCC(=O)Nc1ccc2c(c1)OCCO2)Nc1ccc2c(c1)OCCO2", "% Inhibition @ 10 uM": 0.82}, {"smiles": "CCCCN(CCCC)C(=O)c1cc(S(=O)(=O)N2CCCCC2)c[nH]1", "% Inhibition @ 10 uM": -4.37}, {"smiles": "COc1ccc2ccccc2c1C1C(C(C)=O)=C(C)N=c2s/c(=C\\c3ccco3)c(=O)n21", "note": "(stereo not shown)", "% Inhibition @ 10 uM": 6.04}, {"smiles": "CCOc1ccccc1C1C2=C(O)CCCC2=Nc2ncnn21", "note": "(stereo not shown)", "% Inhibition @ 10 uM": 3.32}, {"smiles": "CCc1ccc(S(=O)(=O)N2CCSC2c2ccc(OC)c(Br)c2)cc1", "note": "(stereo not shown)", "% Inhibition @ 10 uM": -1.6}, {"smiles": "CC1(NC(=O)NCCCCCCNC(=O)NC2(C)CCS(=O)(=O)C2)CCS(=O)(=O)C1", "note": "(stereo not shown)", "% Inhibition @ 10 uM": -1.11}, {"smiles": "CN(C)CCN(C(=O)c1ccc(F)cc1)c1nc2c(F)cc(F)cc2s1", "% Inhibition @ 10 uM": -1.34}, {"smiles": "CC(C)(C)NC(=O)CC12CC3CC(C1)CC(CC(=O)NC(C)(C)C)(C3)C2", "% Inhibition @ 10 uM": 0.962}, {"smiles": "Oc1ccc(-c2nc3c4ccccc4c4ccccc4c3[nH]2)cc1", "% Inhibition @ 10 uM": 6.23}, {"smiles": "CCOC(=O)C1=C(C)NC(=O)NC1c1ccc(C(C)C)cc1", "note": "(stereo not shown)", "% Inhibition @ 10 uM": -1.97}, {"smiles": "CC(=O)/N=c1/n(C)c2ccccc2n1CCOc1ccccc1", "% Inhibition @ 10 uM": -5.29}, {"smiles": "CCCOc1ccc(CNC(=O)Cn2ncn3c(cc4sc(C)cc43)c2=O)cc1", "% Inhibition @ 10 uM": -5.32}, {"smiles": "O=C1C(=O)N(C(=O)NC2CCCCC2)c2ccc(Br)cc21", "% Inhibition @ 10 uM": 1.03}, {"smiles": "CC(=O)C1=C(C)N(C)C2=C(C(=O)c3ccccc32)C1c1ccccc1F", "note": "(stereo not shown)", "% Inhibition @ 10 uM": -3.41}, {"smiles": "COc1ccc(-c2ccc(=O)n(CC(=O)NCCc3ccc(S(N)(=O)=O)cc3)n2)cc1", "% Inhibition @ 10 uM": 2.35}, {"smiles": "CCN(CC)CCCNC(=O)c1nn2c(c1Cl)NC(c1ccc(C)cc1)CC2C(F)(F)F", "note": "(stereo not shown)", "% Inhibition @ 10 uM": 4.86}, {"smiles": "CC1(C)CC2=Nc3cc(Cl)ccc3SC2=C(O)C1", "% Inhibition @ 10 uM": -1.97}, {"smiles": "O=c1[nH]c(=O)c2c(-c3ccccc3)csc2[nH]1", "% Inhibition @ 10 uM": -7.99}, {"smiles": "COC(=O)C1=NNC2C(=O)N(Cc3ccccc3)C(=O)C12", "note": "(stereo not shown)", "% Inhibition @ 10 uM": -0.13}, {"smiles": "Cc1ccc(-n2ncc(C(=O)NC3CCCC3)c2C2CCNCC2)cc1C", "% Inhibition @ 10 uM": 2.28}, {"smiles": "O=C(O)c1ccccc1C(=O)OCCCC(F)(F)C(F)(F)F", "% Inhibition @ 10 uM": -5.08}, {"smiles": "C1CCCN(c2nc(N3CCCCCC3)nc(N3CCCCCC3)n2)CC1", "% Inhibition @ 10 uM": -1.74}, {"smiles": "Cc1nc(N2C(=O)c3oc4ccccc4c(=O)c3C2c2ccc(Cl)cc2)sc1C", "note": "(stereo not shown)", "% Inhibition @ 10 uM": 3.12}, {"smiles": "CC(C)C[C@@H](C(=O)NCC#N)c1cccc(-c2ccc(C3(C)CCNCC3)cc2)c1", "% Inhibition @ 10 uM": 1.7}, {"smiles": "O=C(Nc1cccc(Cl)c1)c1cnccn1", "% Inhibition @ 10 uM": 1.83}, {"smiles": "O=C(NCC1CCCO1)c1cc(-c2ccc(Cl)s2)nc2ccccc12", "note": "(stereo not shown)", "% Inhibition @ 10 uM": 2.44}, {"smiles": "CC(C)=CCCCCCCN1CCN(c2ccc(C)cc2)CC1", "% Inhibition @ 10 uM": 1.62}, {"smiles": "C=CCSc1nc2sc3c(c2c(=O)n1Cc1ccccc1)CCC3", "% Inhibition @ 10 uM": 1.4}, {"smiles": "CC(C(=O)O)c1c(C(=O)O)[nH]c2ccccc12", "note": "(stereo not shown)", "% Inhibition @ 10 uM": 1.91}, {"smiles": "O=C(COc1ccccc1)N1CCN(C(=O)c2cccc(F)c2)CC1", "% Inhibition @ 10 uM": -2.87}, {"smiles": "O=C(c1sc2cc([N+](=O)[O-])ccc2c1Cl)N1CCCCC1", "% Inhibition @ 10 uM": -1.76}, {"smiles": "CCN(C(=O)COc1ccc(Br)cc1C)c1ccccc1", "% Inhibition @ 10 uM": -1.92}, {"smiles": "CCCC1Nc2c(C(=O)O)ccc([N+](=O)[O-])c2C2C=CCC12", "note": "(stereo not shown)", "% Inhibition @ 10 uM": 6.7}, {"smiles": "CN1CCCN(Cc2ccc(F)cc2)CC1", "% Inhibition @ 10 uM": -2.03}, {"smiles": "Cn1cnnc1SC/C=C/c1ccccc1", "% Inhibition @ 10 uM": -8.01}, {"smiles": "COc1cc2nc(S)nc(NCC3CCCO3)c2cc1OC", "note": "(stereo not shown)", "% Inhibition @ 10 uM": 0.708}, {"smiles": "COc1ccc(OCC(=O)Nc2cc(OC)c(Cl)cc2OC)cc1", "% Inhibition @ 10 uM": -0.68}, {"smiles": "CCN1C2=NCCN2c2ccccc21", "% Inhibition @ 10 uM": -4.18}, {"smiles": "CCCCCn1c(C)c2c(OCC)cccc(=O)c2c1C", "% Inhibition @ 10 uM": -4.51}, {"smiles": "Cn1c(SCc2cccc(Cl)c2)nc2ccccc2c1=O", "% Inhibition @ 10 uM": 7.02}, {"smiles": "CCC(C)NC(=O)Cn1nc(C)c2sc3ccccc3c2c1=O", "note": "(stereo not shown)", "% Inhibition @ 10 uM": -3.93}, {"smiles": "COc1ccc(C2=NOC(C(=O)Nc3cc(C)nn3-c3ccccc3)C2)cc1", "note": "(stereo not shown)", "% Inhibition @ 10 uM": -3.45}, {"smiles": "COc1cc(-c2nnn(CC(=O)NC3CCCC3)n2)cc(OC)c1OC", "% Inhibition @ 10 uM": 2.99}, {"smiles": "CCOC(=O)C1=C(CN2CCN(C3CCCCC3)CC2)NC(=O)NC1c1ccc(OC)cc1", "note": "(stereo not shown)", "% Inhibition @ 10 uM": 5.44}, {"smiles": "C=CCOc1ccc(Br)cc1CNc1cccc(C(=O)O)c1", "% Inhibition @ 10 uM": 3.49}, {"smiles": "CC(=O)c1ccc(NC(=O)COc2ccccc2)cc1", "% Inhibition @ 10 uM": 7.66}, {"smiles": "O=C(/C=C/c1ccco1)NCc1ccccc1F", "% Inhibition @ 10 uM": 1.88}, {"smiles": "CC(C)c1ccc(NC(=O)Nc2ccc(Cl)c(Cl)c2)cc1", "% Inhibition @ 10 uM": -2.12}, {"smiles": "COc1ccc(/C=C2/SC(=S)N(CC(=O)O)C2=O)c(OC)c1", "% Inhibition @ 10 uM": 2.4}, {"smiles": "COc1cccc(CN2CCN(Cc3ccccc3Br)CC2)c1OC", "% Inhibition @ 10 uM": 13.4}, {"smiles": "CCOC(=O)C1=C(CSCc2ccccc2)NC(=O)NC1c1ccc2c(c1)OCO2", "note": "(stereo not shown)", "% Inhibition @ 10 uM": -0.403}, {"smiles": "Cc1ccc(CCN2CC(C(=O)NCCN(C)C)CC2=O)cc1", "note": "(stereo not shown)", "% Inhibition @ 10 uM": 4.81}, {"smiles": "Cc1ccc(CCP(=O)(O)CCC(=O)O)cn1", "% Inhibition @ 10 uM": 0.408}, {"smiles": "CC(NC=O)c1ccc(Br)cc1", "note": "(stereo not shown)", "% Inhibition @ 10 uM": 14.3}]}]}
